Reference: the supplement of paper PMC10126150
Values marked as one replicate rest on one cluster of the flow cell; about a third of the high ones do not repeat.

Test system: ATP
Experiment: switch fluorescence ratio, 500 uM ATP over buffer (Cy3 cluster intensity, sum of 5 cycles each) (fold (ratio)); higher = stronger signal-on switching upon ATP binding; sequences stand for … in TCGTCGGCAGCGTCAGATGTGTATAAGAGACAGTTTTTTTTTTTTTTTTTTTTTTTTT…TC
Conditions: aptamer strand: ATP DNA aptamer (quencher-CACCTGGGGGAGTATTGCGGAGGAAGG + anchor), 100 nM annealed; ATP concentration: 500 uM; one replicate
Procedure, shortened: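 Between each of five buffer/ATP cycles, the flow-cell was stripped with NaOH and re-annealed. Each cycle imaged Cy3-labelled switching-strand clusters, annealed to 100 nM quencher-labelled ATP aptamer on a modified Illumina MiSeq flow-cell, first in selection buffer and then after 15 min with 500 uM ATP at 22 °C. The fluorescence ratio is summed target-cycle over summed buffer-cycle Cy3 intensity per cluster, averaged per switch-domain sequence, with clusters outside 100-1000 RFU excluded.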
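Note: ATP exposure 15 min at 22 °C before imaging.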

## CTTGTCCGGC
  switch fluorescence ratio: 1.02

## GAAAGGTAT
  switch fluorescence ratio: 1

## CTTAATCTG
  switch fluorescence ratio: 1.02

## GCGCGGGCAG
  switch fluorescence ratio: 0.97

## GGAATATGCA
  switch fluorescence ratio: 1.01

## ACTTCGGGCT
  switch fluorescence ratio: 0.986

## CTGAGGGTCA
  switch fluorescence ratio: 0.985

## ATGGTATGCG
  switch fluorescence ratio: 0.971

## CGTGCATGC
  switch fluorescence ratio: 1.2

## ATCGCTTCCG
  switch fluorescence ratio: 1.02

## GATCTGGGAT
  switch fluorescence ratio: 0.985

## GCCGTTGAAA
  switch fluorescence ratio: 1.03

## TGGATTCCTG
  switch fluorescence ratio: 0.951

## TCTAGAGCCC
  switch fluorescence ratio: 0.993

## ATCAATCGGC
  switch fluorescence ratio: 1.01

## GACACCCGAT
  switch fluorescence ratio: 1.06

## CTATAGAGGG
  switch fluorescence ratio: 0.991

## ATGCAGGGCC
  switch fluorescence ratio: 0.979

## TGAGCTTATA
  switch fluorescence ratio: 1.07

## CTACTGCTGA
  switch fluorescence ratio: 0.978

## TTTCGAAAGT
  switch fluorescence ratio: 1.01

## GACTGAAGCC
  switch fluorescence ratio: 1.07

## GTAATATCCA
  switch fluorescence ratio: 1.01

## GCTTGTTAAG
  switch fluorescence ratio: 1.01

## AACTGTTGTT
  switch fluorescence ratio: 1

## GGAGGTATT
  switch fluorescence ratio: 1.01

## TGTCTGTAT
  switch fluorescence ratio: 1.03

## CGCCACTAGA
  switch fluorescence ratio: 1.02

## AAGTTAGAGT
  switch fluorescence ratio: 1.01

## AGACTTTGGG
  switch fluorescence ratio: 1.04

## ATCGGACCCG
  switch fluorescence ratio: 1.01

## CCCTTATTTG
  switch fluorescence ratio: 0.997

## GACAACTAGG
  switch fluorescence ratio: 0.984

## ACTTATTTTA
  switch fluorescence ratio: 0.989

## AACGGATGAC
  switch fluorescence ratio: 0.989

## AAGTATGGCC
  switch fluorescence ratio: 0.93

## CAGTGCGCCG
  switch fluorescence ratio: 1.07

## CGGCTAGTCA
  switch fluorescence ratio: 1.02

## GATTTAGGCG
  switch fluorescence ratio: 1.01

## GGGAATGAAT
  switch fluorescence ratio: 0.988

## ATGACATATT
  switch fluorescence ratio: 1.05

## CAAAGCTCGT
  switch fluorescence ratio: 0.974

## GTTATAAATC
  switch fluorescence ratio: 0.999

## CAGTAGCCCT
  switch fluorescence ratio: 1.06

## TCACATTGTC
  switch fluorescence ratio: 1

## CTTTTAGACT
  switch fluorescence ratio: 0.911

## ATTGGGGACG
  switch fluorescence ratio: 1.02

## TTCGATAAGT
  switch fluorescence ratio: 1.03

## GGCGATTATT
  switch fluorescence ratio: 1.01

## AGTTCTAACC
  switch fluorescence ratio: 1

## AGAGTAATA
  switch fluorescence ratio: 1.05

## TTGACAGCC
  switch fluorescence ratio: 1.14

## TTTCGCTGAC
  switch fluorescence ratio: 2.5

## GTGTGGTGGC
  switch fluorescence ratio: 0.905

## CCGGCCTGAA
  switch fluorescence ratio: 0.99

## AACATTTACG
  switch fluorescence ratio: 1.15

## GGGGGAACCC
  switch fluorescence ratio: 0.962

## GTGAGAGCCT
  switch fluorescence ratio: 1.01

## GCTGGTGTCG
  switch fluorescence ratio: 1

## CACTCGTCGT
  switch fluorescence ratio: 1

## GGGATTGCG
  switch fluorescence ratio: 1.01

## TGAGTCCGGA
  switch fluorescence ratio: 0.952

## CTCATCCGAG
  switch fluorescence ratio: 1.09

## AGGGGGGCA
  switch fluorescence ratio: 0.999

## GTGGGTGCGT
  switch fluorescence ratio: 0.975

## GCAAAACCTA
  switch fluorescence ratio: 1.05

## GGGAAGTGTA
  switch fluorescence ratio: 1.02

## ATTCCTTTGC
  switch fluorescence ratio: 1.68

## TTTTCGGG
  switch fluorescence ratio: 1.06

## GGGACTTCA
  switch fluorescence ratio: 1.02

## GGCACCTATG
  switch fluorescence ratio: 1.04

## ATGACAGA
  switch fluorescence ratio: 1.05

## TGTTAGTTGC
  switch fluorescence ratio: 0.952

## TGTAGTTTCG
  switch fluorescence ratio: 0.959

## AATGCCGCAT
  switch fluorescence ratio: 1.06

## GCAATGGTGC
  switch fluorescence ratio: 1.26

## AGGGGTTTTA
  switch fluorescence ratio: 0.998

## CATGTATCAG
  switch fluorescence ratio: 1

## GAGTAGTGAA
  switch fluorescence ratio: 2.21

## GGTTATCACT
  switch fluorescence ratio: 0.943

## GCGGATATAC
  switch fluorescence ratio: 3.43

## CCATTAC
  switch fluorescence ratio: 1.26

## GTAGCTTGGG
  switch fluorescence ratio: 1.03

## AAAATAAGCG
  switch fluorescence ratio: 0.964

## GAGTGTCGGG
  switch fluorescence ratio: 1.05

## TCTAGAATGT
  switch fluorescence ratio: 1

## CACTAGACTC
  switch fluorescence ratio: 1.12

## ACGCACCTAT
  switch fluorescence ratio: 1.37

## ATCGAATTGA
  switch fluorescence ratio: 0.985

## TAAGGGGGA
  switch fluorescence ratio: 0.975

## GCTCGAGAGT
  switch fluorescence ratio: 1.01

## TCCAAATCCC
  switch fluorescence ratio: 1.06

## GGGTGGGACT
  switch fluorescence ratio: 1.03

## TCTGGTCACT
  switch fluorescence ratio: 0.991

## CCAAGTATCG
  switch fluorescence ratio: 0.982

## ACATGAAGCT
  switch fluorescence ratio: 0.932

## ACAGGAAGCG
  switch fluorescence ratio: 1.07

## GATAGCATA
  switch fluorescence ratio: 0.964

## GATGGGCTGA
  switch fluorescence ratio: 0.982

## CAATGATAGA
  switch fluorescence ratio: 0.955

## CAAGCGGGAT
  switch fluorescence ratio: 1.04

## CCAATTCCAC
  switch fluorescence ratio: 1.07

## GTATAAAACG
  switch fluorescence ratio: 1.11

## ATTTTAATA
  switch fluorescence ratio: 1.01

## ACGAGGAA
  switch fluorescence ratio: 1.04

## ATGCGCTGCT
  switch fluorescence ratio: 1.03

## CTTAGTGTA
  switch fluorescence ratio: 1

## ATGCTTTTT
  switch fluorescence ratio: 1

## GAGGAGCAGC
  switch fluorescence ratio: 0.972

## TTTGGACCCC
  switch fluorescence ratio: 1.04

## CAAGCCCCGG
  switch fluorescence ratio: 1.1

## GTTGTGAATT
  switch fluorescence ratio: 1.04

## AAGATTTGAT
  switch fluorescence ratio: 0.99

## GTGTTGACGA
  switch fluorescence ratio: 0.973

## ACCATGATTC
  switch fluorescence ratio: 1.09

## CTGACACTAA
  switch fluorescence ratio: 1.18

## TAACGTCGGG
  switch fluorescence ratio: 0.995

## ATCGTGAGTA
  switch fluorescence ratio: 0.99

## ATTGAGAATG
  switch fluorescence ratio: 0.992

## TACGCCGAGG
  switch fluorescence ratio: 1.02

## TTACGGAGA
  switch fluorescence ratio: 1.1

## GGGAAAAACG
  switch fluorescence ratio: 1.02

## CGGGTACTTA
  switch fluorescence ratio: 1.03

## CGCAGAAGCT
  switch fluorescence ratio: 1

## TTGAACGACG
  switch fluorescence ratio: 0.971

## TCGGCCGACT
  switch fluorescence ratio: 1.06

## CGACGGGATT
  switch fluorescence ratio: 1.7

## TGTCATGATG
  switch fluorescence ratio: 0.99

## AAAACGCCCC
  switch fluorescence ratio: 1.23

## TATTATTACC
  switch fluorescence ratio: 0.991

## TAATGTGGTC
  switch fluorescence ratio: 0.914

## TGTGTTAGGA
  switch fluorescence ratio: 0.987

## ACCCAGCGCA
  switch fluorescence ratio: 1.12

## CGAGGCTCTC
  switch fluorescence ratio: 0.982

## GCGTAATAAT
  switch fluorescence ratio: 1.21

## ATTACGCATT
  switch fluorescence ratio: 1.38

## TTGATCGCTG
  switch fluorescence ratio: 0.981

## AGTGCAGGGG
  switch fluorescence ratio: 1.07

## CATGGAGTTG
  switch fluorescence ratio: 0.988

## GATCCGGCTA
  switch fluorescence ratio: 1.12

## AATGCGCCGA
  switch fluorescence ratio: 1.04

## CATGGATAAG
  switch fluorescence ratio: 0.996

## ACACTGAACC
  switch fluorescence ratio: 1.33

## AAGGTAGGTT
  switch fluorescence ratio: 1.11

## ATAGGAACT
  switch fluorescence ratio: 1

## GGGACCGCT
  switch fluorescence ratio: 0.995

## AATGCTTGTT
  switch fluorescence ratio: 1.06

## TAGTTATGCA
  switch fluorescence ratio: 1.01

## TAAACACGCA
  switch fluorescence ratio: 1.22

## CACTACTTAA
  switch fluorescence ratio: 1.04

## CAAGGTAGTG
  switch fluorescence ratio: 0.981

## GGGTCGTTAG
  switch fluorescence ratio: 1.01

## TACCCGTTGG
  switch fluorescence ratio: 1.03

## CAATATCTCG
  switch fluorescence ratio: 1.09

## GAGAACACGC
  switch fluorescence ratio: 0.991

## AGCTGTATTA
  switch fluorescence ratio: 0.983

## TAATGCCTTC
  switch fluorescence ratio: 1.1

## TTTGGGGCAA
  switch fluorescence ratio: 1.16
